Data taken from PubChem BioAssay AID504832 (National Center for Advancing Translational Sciences (NCATS), 2011).
Out of some 310,000 compounds screened, about 18,000 (5.8%) were called active. This list was built around the results that the source calls inconclusive (neither active nor inactive); the mix of calls is not that of the screen. Calls come from the whole dose curve; as a rule, active = well fitted inhibition curve with a large enough effect; inconclusive = small, poorly fitted or top-dose-only effect, or another doubt; inactive = no such curve, though single readings can be large or run the other way. No potency is given beside an inconclusive call; the fits are too rough.

experiment: Primary qHTS for delayed death inhibitors of the malarial parasite plastid, 48 hour incubation; conditions: P. falciparum luciferase growth in erythrocytes; series mostly up to 28.7 µM; activity change, negative = inhibition: at the top concentration
Outline: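 Compounds are pin-transferred into medium, infected erythrocytes (2% hematocrit, 0.1% parasitemia final) are added, and plates sit one parasite generation at 37 C in 5% CO2. Detection reagent is then added and luminescence measured.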
% is set by controls: 0 for no effect and ±100 for the full control effect; potency is the fitted concentration of half-maximal effect; tags give direction and shape of the fitted curve.

**Q.** For `CCOC(=O)c1cc2sccc2n1CC(=O)OC(C)C`, which “activity change, negative = inhibition” value is on record?
**A.** inactive: -26%

**Q.** With `Cc1ccc(S(=O)(=O)N2CCCCC2)cc1NC(=O)c1ccc(Cl)nc1` as the compound, how does the Potency read?
**A.** inconclusive [inhibitor, single point]

**Q.** With `COc1cc(/C=C2\COC/C(=C\c3cc(OC)c(OC)c(OC)c3)C2=O)cc(OC)c1OC` as the compound, how does the Potency read?
**A.** active: 0.37 µM

**Q.** Which “activity change, negative = inhibition” value does the source give for `COc1cccc(/C=C/C(=O)N2CCN(S(=O)(=O)c3ccccc3)CC2)c1OC` here?
**A.** inactive: 159%

**Q.** With `Cc1noc(C)c1-c1nnc(-c2ccc(OC(F)(F)F)cc2)o1` as the compound, how does the “activity change, negative = inhibition” value read?
**A.** inactive: 50.7%

**Q.** With `CCOc1ccc(OCC)c(NC(=O)CCCN2C(=S)NC(C)(C)CC2C)c1` (stereo not given) as the compound, how does the Potency read?
**A.** inconclusive [inhibitor, partial curve]

**Q.** Which Potency does the source give for `COc1ccc(OC)c(S(=O)(=O)NCC(=O)NC2CCCCCC2)c1` here?
**A.** inconclusive [inhibitor, single point]

**Q.** For `COC(=O)c1cc(S(=O)(=O)NCC2CCN(CCc3ccc(OC)cc3)CC2)cn1C`, which “activity change, negative = inhibition” value is on record?
**A.** inactive: 0%

**Q.** Which Potency does the source give for `COc1ccccc1N(C(=O)Cn1nnc(-c2ccc(C)o2)n1)C(C(=O)NC1CCCC1)c1ccncc1` (stereo not given) here?
**A.** inconclusive [inhibitor, partial curve, poor fit]

**Q.** Which “activity change, negative = inhibition” value does the source give for `CSc1ncccc1C(=O)Nc1cc(C)ccn1` here?
**A.** inactive: 27%

**Q.** Which Potency does the source give for `O=c1oc2c(CN3CCCCC3)c(O)ccc2c2c1CCCCC2` here?
**A.** active: 2.94 µM

**Q.** For `CCCCC(C)(O)C/C=C/[C@H]1[C@H](O)CC(=O)[C@@H]1CCCCCCC(=O)OC` (stereo not given in full), which Potency is on record?
**A.** inconclusive [inhibitor, single point]

**Q.** With `O=[N+]([O-])c1ccc(OCc2cnc(Cl)s2)c([N+](=O)[O-])c1` as the compound, how does the Potency read?
**A.** inconclusive [inhibitor, single point]

**Q.** With `O=C(CN1C(=O)C2CC=CCC2C1=O)Nc1nc2ccccc2s1` (stereo not given) as the compound, how does the “activity change, negative = inhibition” value read?
**A.** inactive: 51.5%

**Q.** With `O=C(c1ccc2c(c1)OCO2)N1CCC2(CC1)Oc1ccc(Cl)cc1C(=O)C21CC(c2ccc(Cl)cc2)=NO1` (stereo not given) as the compound, how does the Potency read?
**A.** inconclusive [inhibitor, full curve, poor fit]

**Q.** With `O=C(c1ccco1)N1CCN(C(=O)C2CCCc3c2[nH]c2ccc(Cl)cc32)CC1` (stereo not given) as the compound, how does the Potency read?
**A.** inconclusive [inhibitor, single point]

**Q.** Which Potency does the source give for `CC(C)CN1C(=O)NC(NC(=O)c2cccs2)(C(F)(F)F)C1=O` (stereo not given) here?
**A.** active: 2.33 µM

**Q.** Which Potency does the source give for `CCCOC(=O)C(C)n1cnc2scc(-c3ccc(C)cc3)c2c1=O` (stereo not given) here?
**A.** inconclusive [inhibitor, full curve, poor fit]

**Q.** With `Cc1ccccc1OCC(O)CN1CCN(CC(O)COc2ccccc2C)C(C)C1` (stereo not given) as the compound, how does the Potency read?
**A.** active: 9.28 µM

**Q.** Which Potency does the source give for `COc1ccccc1-c1nnc(SCC(=O)O)n1-c1ccc(C)cc1` here?
**A.** inconclusive [inhibitor, partial curve]
